Results from PubChem BioAssay AID1346428 (National Center for Advancing Translational Sciences (NCATS), 2018).
Several values for one entry are separate records, joined by “and”; a condition that tells them apart may be missing. Equal entries are not always repeated. Out of some 48,000 compounds screened, about 1,200 (2.5%) were called active. Not shown: some 2% with an inconclusive outcome.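 The calls were made as follows: active = activation of at least 60% and not above a set upper limit (about 1 call in 100 departs from these limits); inconclusive = activation of 40% to 60%, or above that upper limit; inactive = activation under 40%.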 The list shows a part of the results.

Each molecule was assayed against Probable G-protein coupled receptor 32 (Homo sapiens) (UniProt O75388) (assay: qHTS for Agonists of Human Resolvin D1 Receptor DRV1). Details: CHO-K1 GPR32 beta-arrestin PathHunter luminescence, 90 min; at 76.9 µM; hits give high values; zero percent set by DMSO-only wells.
How it was run: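 CHO-K1 cells stably expressing ProLink-tagged GPR32 and Enzyme Activator-tagged beta-arrestin were seeded at 2,500 cells/well overnight, exposed to compounds for 90 min at 37 °C, then read by beta-Gal complementation chemiluminescence after 1 h detection reagent.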
Also: 0% is about no effect.

Sequence of UniProt O75388 (O75388 whole entry, looked up): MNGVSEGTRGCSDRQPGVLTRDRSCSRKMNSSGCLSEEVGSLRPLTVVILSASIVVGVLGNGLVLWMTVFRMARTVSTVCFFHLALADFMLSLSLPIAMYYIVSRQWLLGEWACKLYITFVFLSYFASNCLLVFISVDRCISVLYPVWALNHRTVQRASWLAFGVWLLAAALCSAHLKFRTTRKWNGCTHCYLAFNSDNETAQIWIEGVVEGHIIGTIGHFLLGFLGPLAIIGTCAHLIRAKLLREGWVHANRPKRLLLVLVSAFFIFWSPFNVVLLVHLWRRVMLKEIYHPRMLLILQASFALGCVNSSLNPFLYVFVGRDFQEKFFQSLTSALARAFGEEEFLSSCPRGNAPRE

activation, inactive:
COc1cccc(/C=C/c2onc(C)c2S(=O)(=O)N2CCC(C(=O)N3CCC(C)CC3)CC2)c1 -15.9%, CC(CNC(=O)Cc1ccc(NC(=O)N2CCSc3ncccc32)cc1)c1ccccc1 (stereo unspecified) 4.32%, CCOC(=O)C1=C(CN2CCN(c3ccccc3F)CC2)NC(=O)NC1c1ccc(Cl)cc1 (stereo unspecified) -37%, Cc1ccccc1NCc1cccn1-c1nnc(N2CCC(C)CC2)s1 -8.09%, COc1ccc(-c2cn3c(n2)sc2cc(C(=O)Nc4cccc(OC)c4)ccc23)cc1 -17.7%, COC(=O)c1scc(-c2ccc(C)cc2)c1S(=O)(=O)Nc1ccc(N(C)C)cc1 -11.9%, Cc1nc2c(-c3ccccc3)c(C)nn2c(C)c1CCC(=O)NCc1ccc(F)cc1 -0.413%, Cc1c(Cl)cccc1-n1nc(C)c2c(C(=O)NCc3ccccc3)cc(C3CC3)nc21 -14.1%, Cc1ccc(CNC(=O)C2CCN(S(=O)(=O)c3cc(-c4noc(C)n4)ccc3C)CC2)cc1 0.172%, CCOc1ccc(NC(=O)CC2C(=O)N(c3ccccc3)C(=O)N2Cc2ccc3c(c2)OCO3)cc1 (stereo unspecified) -12.6%, Cn1c(=O)oc2cc(S(=O)(=O)Nc3ccccc3O)ccc21 2.99%, COc1ccc(-c2cc(C(F)(F)F)nc(SCC(=O)N3CCC(C)CC3)n2)cc1 -15.2%, O=C(NCc1ccc(Cl)cc1)C1CCN(S(=O)(=O)Cc2ccccc2)CC1 -5.97%, CCOc1ccc(CCNC(=O)c2cc3c(s2)-c2ccccc2OC3)cc1OCC -1.59%, Cc1ccc(-c2cc(NC(=O)COc3ccc(Cl)cc3C)on2)cc1 4.73%, COc1ccc(OC)c(-c2csc(-c3c(N)c(C(=O)c4ccccc4)n4ccccc34)n2)c1 15.7%, CC(C)NCC(O)COc1ccc(COCCOC(C)C)cc1 (stereo unspecified) 10.6% and -2.98%, COc1ccc(CN(Cc2ccco2)c2cnc(S(C)(=O)=O)nc2C(=O)Nc2ccc(F)cc2)cc1 -9.94%, COc1ccc(S(=O)(=O)N(CC(=O)Nc2cccc(C(F)(F)F)c2)c2ccc(C)cc2)cc1 20%, CCCCOc1ccc(CNC(=O)C2COc3ccc(OC)cc3C2)cc1 (stereo unspecified) -2.32%, Cn1c(=O)n(C/C=C/c2ccccc2)c(=O)c2c1nc1n2CCN1c1ccccc1 -2.56%, COc1ccc(-n2c(=O)c3c(c4cc(OC)ccc4n3C)n(Cc3cc(C)ccc3C)c2=O)cc1 8.72%, CCOc1ccc(C(=O)c2cn(CC(=O)Nc3ccc4c(c3)OCO4)c3ccc(OCC)cc3c2=O)cc1 7.14%, Cc1ccc(NC(=O)CN2C(=O)COc3ccc(S(=O)(=O)N4CCCCC4)cc32)cc1N(C)C -20.9%, O=C(Cn1ncn2nc(-c3cccs3)cc2c1=O)NCc1cccc(Br)c1 -7.66%, COC(=O)c1cccnc1-n1c(=O)c2cccnc2n(CC(=O)Nc2c(C)cc(C)cc2C)c1=O 11%, Nc1c(C(=O)c2ccc(F)cc2)sc(Nc2ccccc2F)c1S(=O)(=O)c1ccc(Br)cc1 -51.5%, Cc1cccc(CNC(=O)c2ccc(NC(=O)N3CC(C)Sc4ccccc43)cc2)c1 (stereo unspecified) -18.5%, CC(C)CN(CCNC(=O)CN1C(=O)CSc2ccc(S(=O)(=O)N3CCOCC3)cc21)CC(C)C -12.1%, CCOc1ccc(S(=O)(=O)N(CC(=O)Nc2ccc3c(c2)OCO3)c2ccccc2)cc1 -1.66%, Cc1ccc(NC(=O)Cn2c(=O)n(-c3ccccc3)c(=O)c3ccc(C(=O)NCc4ccc5c(c4)OCO5)cc32)c(C)c1 1.45%, O=C(Nc1c(-c2ccc(F)cc2)nc2ccccn12)c1ccccc1F -12.6%, COc1ccccc1CNC(=O)c1ccc2c(c1)CCN2S(=O)(=O)c1ccccc1 -9.95%, O=C(/C=C\c1ccc2c(c1)OCO2)NC1CC(=O)N(c2cccc(F)c2)C1 (stereo unspecified) -7.99%, CCOC(=O)c1cccc(NC(=O)c2ccc3nc(Cc4ccccc4)oc3c2)c1 -17%, CC(C)c1cc(-c2nc(-c3ccc(Br)cc3)no2)n[nH]1 6.14%, CCCN(Cc1cccs1)C(=O)Nc1ccc(Br)cc1F -5.66%, Cc1cc2c(n1-c1ccc(C(=O)NCCc3ccccc3)cc1)CCC(C)C2 (stereo unspecified) -12.4%, CCCN1CCN(CCNC(=O)Nc2ccccc2OCC)CC1 1.75%, CCN1CCN(c2ncc3c(n2)CCN(Cc2ccc(OC)c(OC)c2)C3)CC1 -0.307%, COc1ccc2[nH]c(=O)c(CN(C(=O)c3cccc(Cl)c3)c3cccc(C)c3)cc2c1 -14.4%, COc1cccc(CNC(=O)CCCCCn2c(=O)[nH]c3cc(OC)c(OC)cc3c2=O)c1 -3.02%, CCN1C(=O)c2ccccc2S(=O)c2ccc(C(=O)N3CCN(c4ccccc4OC)CC3)cc21 (stereo unspecified) -7.69%, COc1cc(C(CC(=O)Nc2cc(C)ccn2)N2Cc3ccccc3C2=O)cc(OC)c1OC (stereo unspecified) 17.9%, CCOC(=O)c1c(C)[nH]c(C)c1S(=O)(=O)NCC(=O)NCc1ccccc1Cl -6.72%, CN(Cc1ccccc1)C(=O)c1cc(-c2cccc(Cl)c2)on1 0.282%, COc1ccccc1CNC(=O)CCCn1c(=O)c2ccccc2n(Cc2ccccc2C#N)c1=O 10.4%, Cc1cc2c(n1-c1ccc(C(=O)NCc3ccc(OC(C)C)cc3)cc1)CCCC2 -16.2%, COc1cc(-c2oc3ccc(C)cc3c(=O)c2O)cc(OC)c1OC 10.5%, COc1ccc2c(c1)c1c(c(=O)n(-c3cccc(C)c3)c(=O)n1CC(=O)NCC1CCCO1)n2C (stereo unspecified) 16.7%, COc1ccccc1NC(=O)CSc1oc(-c2ccccc2)nc1S(=O)(=O)c1ccccc1 -32.4%, CC(C)=CCC/C(C)=C/CC/C(C)=C/C(=O)OCC(=O)[C@@]1(O)CC[C@H]2[C@@H]3CCC4=CC(=O)C=C[C@]4(C)[C@H]3[C@@H](O)C[C@@]21C 5.95%, Cc1cccc(Cc2c(C)nc3nc(SCc4ccccc4F)nn3c2C)c1 -2.51%, CCOc1ccccc1C(=O)Nc1ccc(S(=O)(=O)Nc2ncccn2)cc1 -7.08%, O=C(CN1C(=O)COc2ccc(S(=O)(=O)N3CCCCCC3)cc21)NCCc1ccccc1 -50.4%, Cc1ccc(NC(=O)N2CCN(C)c3ncccc32)cc1C -1.76%, CSc1nc(N)c2ncn([C@@H]3O[C@H](COP(=O)(O)OP(=O)(O)OP(=O)(O)O)[C@@H](O)[C@H]3O)c2n1 3.9%, COCCNC(=O)c1c(NC(=O)c2cc(=O)c3cc(Cl)ccc3o2)sc2c1CCCC2 8.77%, COC(=O)c1ccccc1NC(=O)N1CCC(n2c(C)nc3cccnc32)CC1 9.76%, COc1cc(OC)c(N(C)C(=O)Cn2ncc3c(=O)oc4ccccc4c32)cc1Cl -5.79%, Cc1ccc(CN2C(=O)N(c3ccccc3)C(=O)C2CC(=O)Nc2ccccc2)cc1 (stereo unspecified) 19.1%, COc1ccccc1NC(=O)Cn1nnc(C(=O)Nc2ccccc2Br)c1N 2.45%, CCc1cccc(C)c1NC(=O)Cn1cc2c(n1)CCCCC2 -2.86%, CCC(C)NC(=O)CSc1nc(-c2ccc(F)cc2)cc(C(F)(F)F)n1 (stereo unspecified) 12.4%, COC(=O)c1ccccc1NC(=O)c1cnc2sc(N3CCOCC3)nn2c1=O -5.8%, CC(=O)N1CCN(c2csc3ccc(Br)cc3c2=O)CC1 -58.8%, Cc1ccc(CNC(=O)c2cc(=O)c3cc(C)cc(C)c3o2)cc1 4.78%, CCOc1ccc(NC(=O)c2cc3cc4cc(OC)ccc4nc3s2)cc1 -8.93%, CCc1nn(CCCC(=O)NCc2cc(Br)ccc2OC)c(=O)c2cc3occc3n12 -23.8%, COc1cccc(C(=O)Nc2cccc(C(=O)OCc3cc(=O)n4c5c(sc4n3)CCCC5)c2)c1 -11%, Cc1cccc(NS(=O)(=O)c2ccc3c(c2)OCC(C(=O)N2CCCC2)O3)c1C (stereo unspecified) -13.4%, O=c1c2cccnc2n(Cc2cccc(F)c2)c(=O)n1Cc1ccccc1Cl -19.7%, Cc1ccc(-c2nnc(Nc3ccc(O)cc3)c3ccccc23)cc1S(=O)(=O)N1CCCCC1 -34.3%, COc1ccc2cc(CNc3ccc(C)cc3)c(=O)n(CC(=O)Nc3cccc(C(F)(F)F)c3)c2c1 -29.5%, CCOC(=O)CSc1nc2c(sc3cccc(F)c32)c(=O)n1Cc1ccc(OC)cc1 -33.1%, O=C(NCCS(=O)(=O)N1CCN(c2ccc(F)cc2)CC1)C1CC(=O)N(c2ccccc2)C1 (stereo unspecified) -7.62%, COc1ccccc1-n1c(=O)c2c3c(sc2n(Cc2ccccc2F)c1=O)CN(C(C)=O)CC3 -4.8%, CC(C)(C)C(=O)Nc1ccc2nc(SCC(=O)N3CCc4ccccc43)sc2c1 47.1%, Cc1ccc(S(=O)(=O)c2cn(CC(=O)Nc3ccc4c(c3)OCO4)c3ccccc3c2=O)cc1C -0.966%, CCOc1ccc(CCNC(=O)c2cccc(-n3c(C)nc4cccnc43)c2C)cc1 -0.043%, CCOC(=O)CCCN1C(=O)CCn2nc(-c3cn(C)c4ccccc34)cc21 -24.6%
